# Measured values taken from PubChem BioAssay AID1347417 (National Center for Advancing Translational Sciences (NCATS), 2020).
# Among all 120,000 compounds or so, about 5,300 (4.4%) were called active. The shares of active, inactive and inconclusive entries below differ from those in the screen. The call rests on the fitted dose curve; in most records, active means well fitted inhibition curve with a large enough effect; inconclusive means small, poorly fitted or top-dose-only effect; inactive means no such curve, though single readings can be large or run the other way. Potencies beside an inconclusive call are fits to weak or partial responses and may not hold up.
# Test: qHTS Primary assay for Inhibitors of Plasmodium falciparum Dd2 growth in vitro; further: nearly all actives have a fitted effect of over 65% in size;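 on activity, negative = inhibition: plate controls were DMSO vehicle for no effect and reference drug for full effect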
# Details: P. falciparum Dd2 growth, SYBR Green, 72 h; activity, negative = inhibition: at 28.9 µM (top of the series) unless noted; series mostly up to 28.9 µM
# Method in brief: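 Readout: SYBR Green fluorescence, 485 nm excitation, 535 nm emission, after ~16 h lysis at 37C. Before that, Dd2-infected red cells (2.5% hematocrit) grew 72 h with compound, 29 uM top final concentration.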
# Potency means the concentration at half of the fitted maximal effect; tags describe the fitted curve by direction and shape.
Compound,Potency,"activity, negative = inhibition"
CN(Cc1cnc2ccccc2n1)C(=O)c1cccc(CCC(C)(C)O)c1,"inconclusive: 5.62 µM [inhibitor, partial curve, poor fit]",
O=[S+]([O-])(c1cccs1)N1CCN(c2nc3ncccc3o2)CC1,inactive,
COc1ccc(NC(=O)O[C@@H]2CO[C@H]3[C@@H]2OC[C@@H]3NS(=O)(=O)c2ccc3ccccc3c2)cc1,"inconclusive: 11.2 µM [inhibitor, single point]",
CC(C)c1ccc(-c2noc(SCC(=O)N3CCN(c4ccccc4F)CC3)n2)cc1,"inconclusive: 2.24 µM [inhibitor, full curve, poor fit]",
O=C(NCc1cccs1)c1ccc2c(c1)sc1nc(-c3ccccc3)cn12,"inconclusive: 10 µM [inhibitor, single point]",
O=C(N[C@@H]1CCOC[C@H]1OCc1cscn1)c1ccc(Cl)s1,inactive,
N#C/C(=C/c1ccc(O)cc1)c1nc(-c2ccc(-c3ccccc3)cc2)cs1,"inconclusive: 3.55 µM [inhibitor, single point]",
CC(CCc1ccccc1)NC(=O)CCn1ccn2nc3c(c2c1=O)CCCC3 (stereo not drawn),"inconclusive: 10 µM [inhibitor, single point]",
Cc1ccc(-c2nnc(C3CN(C(=O)CC(C)C)CC34CCOCC4)o2)cc1 (stereo not drawn),inactive,
O=C1CN(C(=O)CCC(=O)N2CCC(Cc3nncn3-c3ccccc3)CC2)c2ccccc2N1,"inconclusive: 20 µM [inhibitor, single point]",
CCNC(=O)c1cccnc1OC1CCN(C(=O)CC2CCCCC2)C1 (stereo not drawn),"inconclusive: 8.91 µM [inhibitor, single point]",
O=C(CCC1CCCC1)NC1CCN(c2cn[nH]c(=O)c2)CC1,inactive,
CCCSC1=NC2(CCN(C(=O)NC3CCCCC3)CC2)N=C1c1ccc(OC)cc1,active: 11.2 µM,
COc1ccc(-c2ccc3ncc(Nc4ccncc4)n3n2)cn1,"inconclusive: 7.08 µM [inhibitor, partial curve, poor fit]",
CCN1c2cc(C(=O)Nc3cc(OC)ccc3OC)ccc2C(=O)N2CCCCCC21 (stereo not drawn),inactive,
N#CC1=C(N)N(c2ccc(Cl)cc2)C2=C(C(=O)CCC2)C1c1cc(CN2CCOCC2)cs1 (stereo not drawn),active: 12.6 µM,
O=C(NC1CCCCC1)c1ccc2c(c1)N(Cc1ccc(F)cc1)C(=O)c1ccccc1S2(=O)=O,inactive,
Cc1cccc(N(C)C(=O)C2CCC(CNS(=O)(=O)c3cccc4nsnc34)CC2)c1 (stereo not drawn),"inconclusive: 8.91 µM [inhibitor, partial curve]",
Cn1cnc(S(=O)(=O)N2CC(N(C3CCOCC3)S(C)(=O)=O)C2)c1,inactive,
CCN(CC)C(=O)CCC1CCN(C(=O)c2ccccc2F)CC1,inactive,
COc1ccc(-c2csc3ncnc(Nc4ccc(OC)cc4OC)c23)cc1,inactive,
CCc1cccc(NC(=O)Cn2c(=O)n(CC3CCC(C(=O)NC)CC3)c(=O)c3sccc32)c1 (stereo not drawn),"inconclusive: 11.2 µM [inhibitor, partial curve]",
CCC1=C(C(=O)OC)C(c2cccc(F)c2)N2C(CC(=O)NCCc3cccs3)=CSC2=N1 (stereo not drawn),"inconclusive: 1.41 µM [inhibitor, full curve, poor fit]",

Compound,Potency,"activity, negative = inhibition"
Cc1cc(NC(=O)c2cnn(-c3ccccc3)c2-n2cccc2)ccc1Br,"inconclusive: 7.08 µM [inhibitor, partial curve, poor fit]",
O=[S+]([O-])(c1ccccc1)N1CC2(COCCN(Cc3cc(F)ccc3F)C2)C1,"inconclusive: 1.41 µM [inhibitor, partial curve, poor fit]",
COc1cccc(CNC(=O)N2CC(c3noc(-c4ccncc4)n3)C2)c1,active: 8.91 µM,
CCOC(=O)C1=C(C)N=C2SC=C(CC(=O)Nc3cccc(OC)c3)N2C1c1cccc(OC)c1 (stereo not drawn),active: 11.2 µM,
COc1ccc(C(=O)NC(C(=O)NC(C)C(C)C)C2CCN(C(=O)c3ccc(C)cc3)CC2)cc1 (stereo not drawn),active: 2.51 µM,
O=C(CC(c1cccc(O)c1)c1ccccc1Cl)NCc1cccnc1 (stereo not drawn),inactive,
O=C(Nc1ccccc1)N1CCC2(CC1)CC(Cc1ccccc1)=NO2,"inconclusive: 14.1 µM [inhibitor, single point]",
COc1ccc(-c2ccccc2)cc1N1C(=O)[C@@H]2C[C@H]1CN2C(=O)[C@@H]1CCCO1,inactive,
CCc1ccc(C2c3c(-c4cc(C)ccc4O)n[nH]c3C(=O)N2CCO)cc1 (stereo not drawn),,inconclusive: -48.9% [inhibitor] [at 5.79 µM]
CCN1C(=O)C2(CCN(S(=O)(=O)c3ccc(C)c(F)c3)CC2)c2ccccc21,"inconclusive: 8.91 µM [inhibitor, single point]",
O=C(NC1CCCCC1)N1CCCC1c1nnc2n1CCNC2 (stereo not drawn),inactive,
O=C1CCCCC(CNC(=O)c2ccccn2)N1 (stereo not drawn),inactive,
O=C(NC1CCN(c2cc(-c3ccccc3)[nH]n2)C1)c1ccccc1 (stereo not drawn),"inconclusive: 3.98 µM [inhibitor, single point]",
COc1cccc(-c2cc(C3CCN(S(=O)(=O)c4ccc(C#N)cc4)CC3)[nH]n2)c1,"inconclusive: 0.794 µM [inhibitor, partial curve, poor fit]",
CCN1c2cc(C(=O)Nc3ccc(F)cc3F)ccc2C(=O)N2CCCCCC21 (stereo not drawn),inactive,
COc1cc2c(cc1OCc1ccncc1)NC(=O)C21CCN(c2nc(C)cc(C)n2)CC1,"inconclusive: 1.41 µM [inhibitor, partial curve, poor fit]",
CCn1ccc(C(=O)N2CCC(F)(c3nc(-c4ccncc4)no3)CC2)n1,inactive,
O=C(c1ccc2ccccc2n1)N1CC(c2nnc(-c3ccncc3)o2)C2(CCOCC2)C1 (stereo not drawn),"inconclusive: 3.98 µM [inhibitor, single point]",
CCc1cccc(C)c1NC(=O)C1CCN(S(=O)(=O)c2cc(Br)cc3c2N(C(C)=O)CC3)CC1,inactive,
Cc1ccc(C)c(CN2CCC(CNC(=O)C(CC(C)C)N3Cc4ccccc4C3=O)CC2)c1 (stereo not drawn),"inconclusive: 17.8 µM [inhibitor, single point]",
CN(C)c1cccc(C(=O)N2CCCC(n3cc(-c4nc(-c5ccccc5)no4)nn3)C2)c1 (stereo not drawn),"inconclusive: 3.55 µM [inhibitor, partial curve, poor fit]",
O=C1CN(C(=O)CCC(=O)N2CCCC(Cc3nncn3-c3ccccc3)C2)c2ccccc2N1 (stereo not drawn),"inconclusive: 10 µM [inhibitor, single point]",
Cc1ccc(OCC(=O)NCC2Cn3cccc3C(=O)N2C)cc1 (stereo not drawn),inactive,

Compound,Potency,"activity, negative = inhibition"
O=C(c1cccc(Cl)c1)N1CCC(N2CC3CCCN3C2=O)CC1 (stereo not drawn),inactive,
CC(C)CN1C(=O)c2cccn2CC1C(=O)NCC1CCN(Cc2cccc(F)c2)CC1 (stereo not drawn),"inconclusive: 8.91 µM [inhibitor, single point]",
O=C(Nc1ccc(F)cc1F)N1CCOC[C@H](Oc2ccc(C(F)(F)F)cn2)C1,inactive,
CCO[C@H]1CN(C(=O)CCc2nc3c(C)c(C)ccc3[nH]2)C[C@@H]1O,"inconclusive: 0.178 µM [inhibitor, full curve, poor fit]",
Cc1cccc(NC(=O)Cn2c(=O)n(Cc3nc(-c4ccccc4)no3)c(=O)c3ccccc32)c1,"inconclusive: 10 µM [inhibitor, single point]",
O=C(c1cocn1)N1C[C@@H](COCC2CC2)[C@H](c2ccccn2)C1,inactive,
COC[C@@H]1CCCN1Cc1cn(-c2ccccc2)nc1-c1ccc(OC)cc1F,"inconclusive: 10 µM [inhibitor, single point]",
CC1CCCN(C(=O)c2ccc(CSc3nc4ccncc4n3Cc3ccccc3)cc2)C1 (stereo not drawn),active: 11.2 µM,
O=C(NCc1ccc(Cl)cc1)c1cc2cccc3c2n1CCS3,inactive,
COC1CCC12CCN(C(=O)C1(c3ccccc3)CC1)CC2 (stereo not drawn),inactive,
O=C(NCCc1noc(-c2ccncc2)n1)c1ccccc1,inactive,
COc1ccc(CN2CC3(CCN(C(=O)Nc4ccc5c(c4)OCCO5)CC3)C2=O)cc1,"inconclusive: 20 µM [inhibitor, single point]",
COc1ccc(-c2c(C#N)c(SCC(=O)Nc3ccc(C)c(C)c3)nc(C)c2C(=O)Nc2ccccc2)cc1OC,"inconclusive: 17.8 µM [inhibitor, single point]",
CCCCNC(=O)CN1CCN(c2ccc(NC(=O)c3ccc(OC)cc3)cc2C(=O)O)CC1,"inconclusive: 10 µM [inhibitor, single point]",
Cc1ccc(C(=O)N2C(C(=O)N3CCCC3)COC23CCN(C(=O)c2ccccc2C)CC3)cc1 (stereo not drawn),"inconclusive: 2.51 µM [inhibitor, full curve, poor fit]",
CC(=O)c1cccc(NC(=O)Cn2c(=O)n(-c3cccc(C)c3)c(=O)c3c2cc(C)n3C)c1,inactive,
COc1ccc(-c2nc(SCC(=O)NCC3CCCO3)c(-c3ccc(C)cc3)[nH]2)cc1OC (stereo not drawn),"inconclusive: 17.8 µM [inhibitor, single point]",
O=C(NC1CC1)[C@H]1CN2CCC1C[C@@H]2Cn1cc(-c2ccccc2)nn1 (stereo partly drawn),inactive,
CC(C)c1ccc(NC(=O)N[C@H]2CO[C@H]3[C@@H]2OC[C@H]3OC(=O)Nc2cccc(C(F)(F)F)c2)cc1,inactive,
CCOc1ccc(CCNC(=O)c2cc3n(n2)CCCN(Cc2ccc(C)cc2)C3=O)cc1OCC,inactive,
Cc1noc(C)c1C(=O)N1Cc2ccccc2CC2(CCCN(CC3CCNC3)C2)C1 (stereo not drawn),"inconclusive: 20 µM [inhibitor, single point]",
CCCCN(CC)CCCNC(=O)c1ccc2c(c1)N(Cc1ccc(C)cc1)C(=O)c1ccccc1S2,"inconclusive: 0.316 µM [inhibitor, full curve]",
